# Assay results reported in the supplement of paper PMC8728848.
# This is one part of the list.
# Assays:
# Assay in all cases: glycan array binding signal (z-score within array); higher = stronger binding
# Settings in all cases: glycan notation: IUPAC condensed, linker removed
# [1] = biological target: Fuc(a1-2)[GalNAc(a1-3)]Gal(b1-4)GlcNAc(b1-3)GalNAc
# Method in brief: (§1)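 Glycan array binding is given as a within-array Z-score, which can be read as non-binding when negative. The arrays, 3228 of them, came from the Consortium for Functional Glycomics database and were retained only where the protein sequence was available. Z-scores were averaged across arrays of the same protein sequence at different concentrations or buffers and across linkers.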
# [2] = biological target: Fuc(a1-2)[GalNAc(a1-3)]Gal(b1-4)[Fuc(a1-3)]GlcNAc
# Method in brief: as §1
# [3] = biological target: Fuc(a1-2)[GalNAc(a1-3)]Gal(b1-4)[Fuc(a1-3)]GlcNAc(b1-3)GalNAc
# Method in brief: as §1
# [4] = biological target: Fuc(a1-2)[GalNAc(a1-4)]Gal(b1-4)GlcNAc
# Method in brief: as §1
# [5] = biological target: Fuc(a1-2)[GalNAc(b1-3)]Gal
# Method in brief: as §1
# Fuc(a1-3)GlcNAc = biological target: Fuc(a1-3)GlcNAc
# Method in brief: as §1
# [6] = biological target: Fuc(a1-3)[Gal(b1-4)]Glc6S
# Method in brief: as §1
# [7] = biological target: Fuc(a1-3)[Gal(b1-4)]GlcNAc
# Method in brief: as §1
# [8] = biological target: Fuc(a1-3)[Gal(b1-4)]GlcNAc(b1-2)Man(a1-3)[Fuc(a1-3)[Gal(b1-4)]GlcNAc(b1-2)Man(a1-6)]Man(b1-4)GlcNAc(b1-4)GlcNAc
# Method in brief: as §1
# [9] = biological target: Fuc(a1-3)[Gal(b1-4)]GlcNAc(b1-2)Man(a1-3)[Fuc(a1-3)[Gal(b1-4)]GlcNAc(b1-2)Man(a1-6)]Man(b1-4)GlcNAc(b1-4)[Fuc(a1-6)]GlcNAc
# Method in brief: as §1
# [10] = biological target: Fuc(a1-3)[Gal(b1-4)]GlcNAc(b1-2)Man(a1-6)[Gal(b1-4)GlcNAc(b1-2)Man(a1-3)]Man(b1-4)GlcNAc(b1-4)GlcNAc
# Method in brief: as §1
# [11] = biological target: Fuc(a1-3)[Gal(b1-4)]GlcNAc(b1-3)Gal(b1-3)[Fuc(a1-4)]GlcNAc
# Method in brief: as §1
# [12] = biological target: Fuc(a1-3)[Gal(b1-4)]GlcNAc(b1-3)GalNAc
# Method in brief: as §1
# [13] = biological target: Fuc(a1-3)[Gal(b1-4)]GlcNAc(b1-4)Gal(b1-4)[Fuc(a1-3)]GlcNAc
# Method in brief: as §1
# [14] = biological target: Fuc(a1-3)[Gal(b1-4)]GlcNAc(b1-4)Gal(b1-4)[Fuc(a1-3)]GlcNAc(b1-4)Gal(b1-4)[Fuc(a1-3)]GlcNAc
# Method in brief: as §1
# [15] = biological target: Fuc(a1-3)[Gal(b1-4)]GlcNAc(b1-6)[Gal(b1-3)GlcNAc(b1-3)]Gal(b1-4)Glc
# Method in brief: as §1
# [16] = biological target: Fuc(a1-3)[Gal(b1-4)]GlcNAc6S
# Method in brief: as §1
# [17] = biological target: Fuc(a1-3)[Gal3S(b1-4)]Glc6S
# Method in brief: as §1
# [18] = biological target: Fuc(a1-3)[Gal3S(b1-4)]GlcNAc
# Method in brief: as §1
# [19] = biological target: Fuc(a1-3)[Gal3S(b1-4)]GlcNAc6S
# Method in brief: as §1
# [20] = biological target: Fuc(a1-3)[GalNAc(b1-4)]GlcNAc
# Method in brief: as §1
# Fuc(a1-4)GlcNAc = biological target: Fuc(a1-4)GlcNAc
# Method in brief: as §1
# Fuc(b1-3)GlcNAc = biological target: Fuc(b1-3)GlcNAc
# Method in brief: as §1
# Gal(a1-2)Gal = biological target: Gal(a1-2)Gal
# Method in brief: as §1
# Gal(a1-3)Gal = biological target: Gal(a1-3)Gal
# Method in brief: as §1
# Gal(a1-3)Gal(b1-3)GlcNAc = biological target: Gal(a1-3)Gal(b1-3)GlcNAc
# Method in brief: as §1
# [21] = biological target: Gal(a1-3)Gal(b1-3)GlcNAc(b1-2)Man(a1-3)[Gal(a1-3)Gal(b1-3)GlcNAc(b1-2)Man(a1-6)]Man(b1-4)GlcNAc(b1-4)GlcNAc
# Method in brief: as §1
# [22] = biological target: Gal(a1-3)Gal(b1-3)GlcNAc(b1-3)GalNAc
# Method in brief: as §1
# [23] = biological target: Gal(a1-3)Gal(b1-3)[Fuc(a1-4)]GlcNAc(b1-2)Man(a1-3)[Gal(a1-3)Gal(b1-3)[Fuc(a1-4)]GlcNAc(b1-2)Man(a1-6)]Man(b1-4)GlcNAc(b1-4)GlcNAc
# Method in brief: as §1
# Gal(a1-3)Gal(b1-4)Glc = biological target: Gal(a1-3)Gal(b1-4)Glc
# Method in brief: as §1
# Gal(a1-3)Gal(b1-4)GlcNAc = biological target: Gal(a1-3)Gal(b1-4)GlcNAc
# Method in brief: as §1
# [24] = biological target: Gal(a1-3)Gal(b1-4)GlcNAc(b1-3)GalNAc
# Method in brief: as §1
# [25] = biological target: Gal(a1-3)Gal(b1-4)[Fuc(a1-3)]GlcNAc
# Method in brief: as §1
# [26] = biological target: Gal(a1-3)Gal(b1-4)[Fuc(a1-3)]GlcNAc(b1-2)Man(a1-3)[Gal(a1-3)Gal(b1-4)[Fuc(a1-3)]GlcNAc(b1-2)Man(a1-6)]Man(b1-4)GlcNAc(b1-4)GlcNAc
# Method in brief: as §1
# Gal(a1-3)GalNAc = biological target: Gal(a1-3)GalNAc
# Method in brief: as §1
# [27] = biological target: Gal(a1-3)[Gal(a1-4)]Gal(b1-4)GlcNAc
# Method in brief: as §1
# [28] = biological target: Gal(a1-4)Gal(b1-3)GlcNAc(b1-2)Man(a1-3)[Gal(a1-4)Gal(b1-3)GlcNAc(b1-2)Man(a1-6)]Man(b1-4)GlcNAc(b1-4)GlcNAc
# Method in brief: as §1
# Gal(a1-4)Gal(b1-4)Glc = biological target: Gal(a1-4)Gal(b1-4)Glc
# Method in brief: as §1
# Gal(a1-4)Gal(b1-4)GlcNAc = biological target: Gal(a1-4)Gal(b1-4)GlcNAc
# Method in brief: as §1
# [29] = biological target: Gal(a1-4)Gal(b1-4)GlcNAc(b1-2)Man(a1-3)[Gal(a1-4)Gal(b1-4)GlcNAc(b1-2)Man(a1-6)]Man(b1-4)GlcNAc(b1-4)GlcNAc
# Method in brief: as §1
# [30] = biological target: Gal(a1-4)Gal(b1-4)GlcNAc(b1-3)Gal(b1-4)Glc
# Method in brief: as §1
# Gal(a1-4)GlcNAc = biological target: Gal(a1-4)GlcNAc
# Method in brief: as §1
# Gal(a1-6)Glc = biological target: Gal(a1-6)Glc
# Method in brief: as §1
# Gal(b1-2)Gal = biological target: Gal(b1-2)Gal
# Method in brief: as §1
# Gal(b1-3)Gal = biological target: Gal(b1-3)Gal
# Method in brief: as §1
# Gal(b1-3)Gal(b1-4)GlcNAc = biological target: Gal(b1-3)Gal(b1-4)GlcNAc
# Method in brief: as §1
# [31] = biological target: Gal(b1-3)Gal(b1-4)GlcNAc(b1-2)Man(a1-3)[Gal(b1-3)Gal(b1-4)GlcNAc(b1-2)Man(a1-6)]Man(b1-4)GlcNAc(b1-4)GlcNAc
# Method in brief: as §1
# Gal(b1-3)GalNAc = biological target: Gal(b1-3)GalNAc
# Method in brief: as §1
# [32] = biological target: Gal(b1-3)GalNAc(a1-3)[Fuc(a1-2)]Gal(b1-4)Glc
# Method in brief: as §1
# [33] = biological target: Gal(b1-3)GalNAc(a1-3)[Fuc(a1-2)]Gal(b1-4)GlcNAc
# Method in brief: as §1
# [34] = biological target: Gal(b1-3)GalNAc(b1-3)Gal(a1-4)Gal(b1-4)Glc
# Method in brief: as §1
# [35] = biological target: Gal(b1-3)GalNAc(b1-4)Gal(b1-4)Glc
# Method in brief: as §1
# [36] = biological target: Gal(b1-3)GalNAc(b1-4)[Neu5Ac(a2-3)]Gal(b1-4)Glc
# Method in brief: as §1
# Gal(b1-3)GlcNAc = biological target: Gal(b1-3)GlcNAc
# Method in brief: as §1
# [37] = biological target: Gal(b1-3)GlcNAc(a1-6)Gal(b1-4)GlcNAc
# Method in brief: as §1
# [38] = biological target: Gal(b1-3)GlcNAc(b1-2)Man(a1-3)[Gal(b1-3)GlcNAc(b1-2)Man(a1-6)]Man(b1-4)GlcNAc(b1-4)GlcNAc
# Method in brief: as §1
# [39] = biological target: Gal(b1-3)GlcNAc(b1-2)Man(a1-3)[Gal(b1-3)GlcNAc(b1-2)Man(a1-6)]Man(b1-4)GlcNAc(b1-4)[Fuc(a1-6)]GlcNAc
# Method in brief: as §1
# [40] = biological target: Gal(b1-3)GlcNAc(b1-2)[Gal(b1-3)GlcNAc(b1-6)]Man(a1-6)[Gal(b1-3)GlcNAc(b1-2)Man(a1-3)]Man(b1-4)GlcNAc(b1-4)GlcNAc
# Method in brief: as §1
# [41] = biological target: Gal(b1-3)GlcNAc(b1-3)Gal(b1-3)GlcNAc
# Method in brief: as §1
# [42] = biological target: Gal(b1-3)GlcNAc(b1-3)Gal(b1-4)Glc
# Method in brief: as §1
binder,measurement,setting,value
"PILRa (Homo sapiens), Q9UKJ1 (protein) MGRPLLLPLLPLLLPPAFLQPSGSTGSGPSYLYGVTQPKHLSASMGGSVEIPFSFYYPWELATAPDVRISWRRGHFHRQSFYSTRPPSIHKDYVNRLFLNWTEGQKSGFLRISNLQKQDQSVYFCRVELDTRSSGRQQWQSIEGTKLSITQAVTTTTQRPSSMTTTWRLSSTTTTTGLRVTQGKRRSDSWHISLETAVGVAVAVTVLGIMILGLICLLRWRRRKGQQRTKATTPAREPFQNTEEPYENIRNEGQNTDPKLNPKDDGIVYASLALSSSTSPRAPPSHRPLKSPQNETLYSVLKA",glycan array binding signal (z-score),[1],-0.194
same,glycan array binding signal (z-score),[2],0.882
same,glycan array binding signal (z-score),[3],9.37
same,glycan array binding signal (z-score),[4],-0.115
same,glycan array binding signal (z-score),[5],-0.035
same,glycan array binding signal (z-score),Fuc(a1-3)GlcNAc,0.091
same,glycan array binding signal (z-score),[6],-0.08
same,glycan array binding signal (z-score),[7],0.103
same,glycan array binding signal (z-score),[8],-0.138
same,glycan array binding signal (z-score),[9],2.1
same,glycan array binding signal (z-score),[10],-0.546
same,glycan array binding signal (z-score),[11],-0.129
same,glycan array binding signal (z-score),[12],3.22
same,glycan array binding signal (z-score),[13],-0.14
same,glycan array binding signal (z-score),[14],0.185
same,glycan array binding signal (z-score),[15],-0.224
same,glycan array binding signal (z-score),[16],0.024
same,glycan array binding signal (z-score),[17],0.048
same,glycan array binding signal (z-score),[18],-0.314
same,glycan array binding signal (z-score),[19],-0.051
same,glycan array binding signal (z-score),[20],-0.102
same,glycan array binding signal (z-score),Fuc(a1-4)GlcNAc,-0.404
same,glycan array binding signal (z-score),Fuc(b1-3)GlcNAc,-0.246
same,glycan array binding signal (z-score),Gal(a1-2)Gal,-0.298
same,glycan array binding signal (z-score),Gal(a1-3)Gal,-0.315
same,glycan array binding signal (z-score),Gal(a1-3)Gal(b1-3)GlcNAc,-0.153
same,glycan array binding signal (z-score),[21],4.98
same,glycan array binding signal (z-score),[22],-0.192
same,glycan array binding signal (z-score),[23],-0.322
same,glycan array binding signal (z-score),Gal(a1-3)Gal(b1-4)Glc,0.046
same,glycan array binding signal (z-score),Gal(a1-3)Gal(b1-4)GlcNAc,-0.399
same,glycan array binding signal (z-score),[24],-0.192
same,glycan array binding signal (z-score),[25],-0.311
same,glycan array binding signal (z-score),[26],2.21
same,glycan array binding signal (z-score),Gal(a1-3)GalNAc,-0.195
same,glycan array binding signal (z-score),[27],-0.235
same,glycan array binding signal (z-score),[28],-0.296
same,glycan array binding signal (z-score),Gal(a1-4)Gal(b1-4)Glc,0.11
same,glycan array binding signal (z-score),Gal(a1-4)Gal(b1-4)GlcNAc,-0.089
same,glycan array binding signal (z-score),[29],-0.033
same,glycan array binding signal (z-score),[30],-0.27
same,glycan array binding signal (z-score),Gal(a1-4)GlcNAc,-0.204
same,glycan array binding signal (z-score),Gal(a1-6)Glc,0.13
same,glycan array binding signal (z-score),Gal(b1-2)Gal,0.001
same,glycan array binding signal (z-score),Gal(b1-3)Gal,-0.287
same,glycan array binding signal (z-score),Gal(b1-3)Gal(b1-4)GlcNAc,-0.288
same,glycan array binding signal (z-score),[31],-0.101
same,glycan array binding signal (z-score),Gal(b1-3)GalNAc,-0.275
same,glycan array binding signal (z-score),[32],-0.169
same,glycan array binding signal (z-score),[33],-0.179
same,glycan array binding signal (z-score),[34],-0.311
same,glycan array binding signal (z-score),[35],-0.239
same,glycan array binding signal (z-score),[36],-0.382
same,glycan array binding signal (z-score),Gal(b1-3)GlcNAc,-0.077
same,glycan array binding signal (z-score),[37],-0.188
same,glycan array binding signal (z-score),[38],-0.224
same,glycan array binding signal (z-score),[39],-0.179
same,glycan array binding signal (z-score),[40],-0.133
same,glycan array binding signal (z-score),[41],0.263
same,glycan array binding signal (z-score),[42],-0.074
